In PubChem BioAssay AID1508624 (National Center for Advancing Translational Sciences (NCATS), 2021):
Out of some 48,000 compounds screened, about 120 (0.25%) were called active. Roughly 4% stayed inconclusive and do not appear here. Calls come from the whole dose curve; as a rule, active = well fitted activation curve with a large enough effect; inconclusive = small, poorly fitted or top-dose-only effect, or another doubt; inactive = no such curve, though single readings can be large or run the other way. The list shows a part of the results.

Test: Primary qHTS for Identification of Small Molecule Activators of Huntingtin-Antisense Promoter Activity; note: nearly all actives have a fitted effect of over 55% in size
Conditions: HEK293 HTT-AS promoter firefly luciferase reporter, 24 h; series mostly up to 57.5 µM; activity change, positive = activation: at the top concentration
In short: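 HEK293 Fluc reporter, 2,500 cells/well, 24 h pre-culture; cpds up to 57.5 uM final, 24 h 37 degrees C; Dual-Glo, 10 min RT; normalized vehicle = 0%, zero RLU = -100%.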

Activity change, positive = activation, inactive:
CCCCNC(=O)CN1CCN(c2ncc(NC(=O)c3ccc(Cl)cc3)cc2C(=O)O)CC1 -11.3%
COc1cc(NC(=O)C2CCN(c3nc4ccccc4nc3C(F)(F)F)CC2)cc(OC)c1 -18.3%
CCc1ccccc1N(CC)C(=O)C1CCN(c2ncnc3c2nc2n3CCCCC2)CC1 -30.1%
CCOC(=O)C(=O)c1csc(NC=O)n1 -2.31%
CCCOc1cccc(C2c3c(oc4ccc(F)cc4c3=O)C(=O)N2c2nc(C)c(C(C)=O)s2)c1 (stereo not drawn) -24.5%
Cc1cc2n(n1)CCC(=O)N2Cc1ccc(C(=O)Nc2cccc(C(F)(F)F)c2)cc1 -28.7%
Cc1ccc(C)c(NC(=O)CSc2nc(=O)n(Cc3ccncc3)c3c2CCC3)c1 -9.14%
CC(=O)N1c2ccc(S(=O)(=O)NCCC(=O)N(C)Cc3ccccc3)cc2CC1C (stereo not drawn) -14.3%
COC(=O)c1cc2sc(C)cc2n1Cc1nc(-c2ccc(C)cc2)oc1C -10.4%
CC(C)c1ccc(Nc2c(-c3ccc(N(C)C)cc3)nc3cnccn23)cc1 -1.23%
Cc1ccc(Nc2c(-c3ccc(C)cc3)nc3c(C)cccn23)cc1 -5.77%
O=C(NCCc1ccc(Cl)cc1)C(=O)NCC(c1cccs1)S(=O)(=O)c1ccccc1 (stereo not drawn) -25.2%
CCc1cccc(C)c1NC(=O)CCS(=O)(=O)c1ccc2c(c1)oc(=O)n2C -4.37% [at 11.5 µM, percent change from vehicle, -100% = no light]
COc1cccc(CN(C(=O)c2oc3ccccc3c2C)C2CCS(=O)(=O)C2)c1 (stereo not drawn) -7.57%
O=C(Cc1ccc(Cl)cc1)Nc1ccc2oc(-c3ccccc3F)nc2c1 -32.1%
CNC(=O)c1c(NC(=O)Cc2coc3ccc(OC)cc23)sc2c1CCCC2 -12.5%
CN(C)CCC(c1ccccc1)c1ccccn1 (stereo not drawn) 0.0735%
COc1cc(OC)cc(C(=O)NCCc2csc(-c3ccc(C(F)(F)F)cc3)n2)c1 -30.6%
Cc1ccc(NC(=O)CCN2C(=O)c3ccccc3Sc3ncccc32)c(Cl)c1 -21.7%
COc1ccccc1NC(=O)c1sc2nc(C)c(C(=O)Nc3ccc(C)cc3C)c(-c3ccccc3Cl)c2c1N -10.6%
Cc1ccc2oc(=O)c3cc(C(=O)NCCc4ccc(Cl)cc4)sc3c2c1 -3.21%
CCS(=O)(=O)N1CCc2cc(C(=O)NCc3ccccc3Cl)ccc21 -12.1%
COc1ccc(NC(=O)C(C(C)C)N2Cc3ccccc3C2=O)cc1 (stereo not drawn) -16%
CCOc1ccccc1NS(=O)(=O)c1cc(-c2cnc(C3CC3)o2)ccc1C -23.5%
Cc1ccc(-n2nc3c(=O)n(C(C)C(=O)NCc4ccccc4C)nc(C)c3c2C)cc1 (stereo not drawn) -43%
CCc1ccccc1NC(=O)NC(CC)Cn1nnc2ccccc2c1=O (stereo not drawn) -4.55%
O=C(c1cc2ccc3cccnc3c2[nH]1)N1CCN(c2cccc(Cl)c2)CC1 -27.3%
Cc1ccc(C)c(CNC(=O)c2sc3ncnc(N(C)C4CCCCC4)c3c2C)c1 -13.6%
Cc1cc(F)ccc1NC(=O)CCSc1nc(-c2ccco2)cc(C(F)(F)F)n1 3.54% [at 11.5 µM, percent change from vehicle, -100% = no light]
COC(=O)COc1ccc(Oc2nc(NC(C)(C)C)nc(N(C)C)n2)nn1 -15.4%
Cc1ccc(C(=O)NC2(C(F)(F)F)N=C(c3ccccc3)N(C3CCCCC3)C2=O)cc1 (stereo not drawn) -24.3%
COc1ccc(CNC(=O)c2cn(-c3cccc(OC)c3)c(=O)c3ccccc23)cc1 -14.6%
CCOC(=O)c1c(C)c(-c2ccccc2)n(CC(=O)Nc2cccc(C)c2C)c1C -10.6%
